# Measurements taken from publication PMC3691018 (Bioorganic & medicinal chemistry letters, 2013).
# pIC50: −log10 of the molar value.
# Key:
# [1] = target: T1, S. aureus helicase (Staphylococcus aureus, UniProt Q2G1S4); assay: biochemical
# T1 sequence (Q2G1S4 1-466): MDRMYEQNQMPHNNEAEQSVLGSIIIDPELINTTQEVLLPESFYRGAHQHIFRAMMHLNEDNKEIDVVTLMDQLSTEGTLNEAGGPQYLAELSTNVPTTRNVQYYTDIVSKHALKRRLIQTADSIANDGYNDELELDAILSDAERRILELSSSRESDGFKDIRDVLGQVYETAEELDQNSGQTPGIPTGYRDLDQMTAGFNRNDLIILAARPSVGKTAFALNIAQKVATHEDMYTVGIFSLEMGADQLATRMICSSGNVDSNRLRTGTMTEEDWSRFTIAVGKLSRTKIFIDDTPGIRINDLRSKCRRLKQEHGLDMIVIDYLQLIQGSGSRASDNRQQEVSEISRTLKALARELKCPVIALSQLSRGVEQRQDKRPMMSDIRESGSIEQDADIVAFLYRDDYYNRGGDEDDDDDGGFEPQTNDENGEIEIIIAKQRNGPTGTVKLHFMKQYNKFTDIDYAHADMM
# [2] = target: T1, S. aureus helicase; assay type: biochemical; settings: malachite green detection
# [3] = target: T2, S. aureus DNA replicative helicase (Staphylococcus aureus, UniProt Q2G1S4); assay type: biochemical
# T2 sequence (Q2G1S4 1-466): T1 sequence (Q2G1S4 1-466)
SMILES,Activity vs S. aureus helicase (in words) [3],other results
CNc1nc2ccc3nc(NC(=O)c4cccc(OC)c4)sc3c2s1 [Compound 49],,pIC50 [1]: 5.42 to 5.70; Variation of IC50 in response to changes in ATP concentration ([1]; varying ATP concentration): less than 2 fold; Variation of IC50 when oligonucleotide concentrations were altered ([1]; varying oligonucleotide (DNA) concentration): > 6.5 fold; Mode of inhibition ([1]; versus ATP and DNA substrate): noncompetitive with ATP but competitive with the DNA substrate; Inhibition of single-stranded DNA stimulated ATPase activity [2]: failed to exhibit significant inhibition
COc1cccc(C(=O)Nc2nc3ccc4nc(NC(C)C)sc4c3s2)c1 [Compound 51],significantly reduced activity,
COc1cccc(C(=O)Nc2nc3ccc4nc(NCC(C)C)sc4c3s2)c1 [Compound 52],modest inhibition,
COc1cccc(C(=O)Nc2nc3ccc4nc(NC5CCCCC5)sc4c3s2)c1 [Compound 53],significantly reduced activity,
COc1cccc(C(=O)Nc2nc3ccc4nc(NCc5ccccc5)sc4c3s2)c1 [Compound 54],significantly reduced activity,
CNc1nc2ccc3nc(NC(=O)c4cc(OC)c(OC)c(OC)c4)sc3c2s1 [Compound 59],,Inhibition of single-stranded DNA stimulated ATPase activity [2]: failed to exhibit significant inhibition
COc1cc(CNc2nc3ccc4nc(SC)sc4c3s2)cc(OC)c1OC [Compound 64],lost activities,
COc1cc(/C=N/c2nc3ccc4nc(SC)sc4c3s2)cc(OC)c1OC [Compound 65],lost activities,
